Assay results as given in PMC5762908 (Scientific Reports, 2018).
Like-named read-outs stand apart in the source and are kept apart here.

What was measured:
[1] = tested on: HCT116 cells; test: Mitochondrial transmembrane potential, rhodamine 123, flow cytometry; assay type: cell-based, human; details: HCT116, rhodamine 123, 24 h; 5-FU at 4 μM
[2] = tested on: HCT116 cells; test: Cellular reactive oxygen species levels, DCF-DA, flow cytometry; assay type: cell-based, human; details: 1 or 3 h incubation, data not shown
Procedure: The levels of ROS were measured according to previously described[31] using DCF-DA (Sigma-Aldrich Co.). In brief, cells were treated with the complex for 1 and 3 h. Then, the cells were collected, washed with saline and re-suspended in FACS tubes with saline containing 5 μM DCF-DA for 30 min. Finally, the cells were washed with saline and the cell fluorescence was determined by flow cytometry, as described above.

[3] = tested on: HSC-3 (human oral squamous cell carcinoma)
[4] = tested on: HepG2 (human hepatocellular carcinoma)
[5] = tested on: cancer multicellular spheroids formed from HCT116 cells; test: 3D multicellular spheroids culture, alamar blue assay; assay type: cell-based, human
Procedure: Cell viability was quantified using the alamar blue assay, according to Ahmed et al.[28]. Cells were inserted in 96-well plates for all experiments (7 × 10^4 cells/mL for adherent cells or 3 × 10^5 cells/mL for suspended cells in 100 μL of medium). After 24 h, the complex was dissolved in dimethyl sulfoxide (DMSO, Sigma-Aldrich co.) and added to each well and incubated for 72 h. […] Four (for cell lines) or 24 h (for PBMCs) before the end of incubation, 20 μL of a stock solution (0.312 mg/mL) of the alamar blue (resazurin, Sigma-Aldrich Co.) were added to each well. Absorbance at 570 nm and 600 nm was measured using the SpectraMax 190 Microplate Reader (Molecular Devices, Sunnyvale, CA, EUA), and the drug effect was quantified as the percentage of control absorbance.
Briefly, 100 μL of a solution of cells (0.5 × 10^6 cells/mL) were inserted in 96-well plate with a cell-repellent surface (Greiner Bio-One; Kremsmünster, Austria) and cultured in complete medium plus 3% matrigel (BD Biosciences; San Jose, CA, EUA). Spheroids with stable structures had formed after three days. Then, the spheroids were exposed to a range of drug concentrations for 72 h, after which the cell viability was quantified by alamar blue assay as described above.

[6] = tested on: HCT116 cells; details: for DNA content (%) G0/G1 / DNA content (%) G2/M / DNA content (%) S / DNA content (%) Sub-G0/G1: HCT116 cells
[7] = tested on: B16-F10 (mouse melanoma)
[8] = tested on: HCT116 cells; test: Annexin V-FITC/PI staining assay, flow cytometry; assay type: cell-based, human
Procedure: For apoptosis detection, we used the FITC Annexin V Apoptosis Detection Kit I (BD Biosciences), and the analysis was performed according to the manufacturer’s instructions. The cell fluorescence was determined by flow cytometry as described above. The protection assays using the caspase-3 inhibitor (Z-DEVD-FMK, BD Biosciences) and the antioxidant NAC (Sigma-Aldrich Co.) were performed. In brief, the cells were pre-treated for 2 h with 50 µM Z-DEVD-FMK and for 1 h with 5 mM NAC, followed by incubation with 4 µM of the complex for 48 h. The cells were then trypsinized and the FITC Annexin V Apoptosis Detection assay was conducted as described above.

[9] = tested on: MCF7 (human breast carcinoma)
[10] = tested on: HL-60 (human promyelocytic leukemia)
[11] = tested on: caspase-3 in HCT116 cells; test: Caspase-3 activation assay, colorimetric, DEVD-pNA substrate; assay type: cell-based, human; details: HCT116, 48 h; 5-FU at 4 μM
[12] = tested on: HCT116 cells; details: HCT116, trypan blue
Procedure: TBE assay was used to confime the cytotoxic effect of the complex tested. The number of viable cells and non-viable cells (take up trypan blue) were counted. Briefly, 90 μL was removed from the cell suspension and 10 μL of trypan blue (0.4%) was added. Cell counting was performed using a light microscope with a hemocytometer filled with an aliquot of the homogenized cell suspension.

[13] = tested on: K-562 (human chronic myelogenous leukemia)
[14] = tested on: HCT116 (human colon carcinoma)

[Ru(5-FU)(PPh3)2(bipy)]PF6 [RU/5-FU]
Mitochondrial membrane potential (depolarization) [1]: induced mitochondrial depolarization
Intracellular ROS levels [2]: did not induce significant increase
more potent than 5-FU (fold) ([3]; HSC3, IC50 compared with 5-FU): 10 fold
Selectivity index (SI) ([3]; SI = IC50[MRC-5]/IC50[HSC-3]): 5.6
Selectivity index (SI) ([3]; SI = IC50[PBMC]/IC50[HSC-3]): 3.4
IC50 ([3]; read-out: IC50 in µM, HSC3, alamar blue assay, 72 h incubation, 2D culture): 1.7 µM
Selectivity index (SI) ([4]; SI = IC50[MRC-5]/IC50[HepG2]): 3.4
Selectivity index (SI) ([4]; SI = IC50[PBMC]/IC50[HepG2]): 2.1
IC50 ([4]; read-out: IC50 in µM, HepG2, alamar blue assay, 72 h incubation, 2D culture): 2.8 µM
Effect on spheroid cell aggregations (light microscopy) ([5]; 3D HCT116 spheroids): disrupted these cell aggregations
more potent than 5-FU (fold) ([5]; 3D HCT116 spheroids, IC50 compared with 5-FU): ≥ 113 fold
IC50 ([5]; 3D multicellular spheroids, alamar blue assay, 72 h): 1.7 µM
Cell cycle phase accumulation / arrest, in words [6]: No accumulation of cells in any phase of the cell cycle
Internucleosomal DNA fragmentation (sub-G0/G1), in words [6]: significant increase
DNA content (%) G0/G1 ([6]; 24 h incubation, 1 µM): 43.6 ± 2.9%
DNA content (%) G2/M ([6]; 24 h incubation, 1 µM): 32.1 ± 1.7%
DNA content (%) S ([6]; 24 h incubation, 1 µM): 8.8 ± 2.3%
DNA content (%) Sub-G0/G1 ([6]; 24 h incubation, 1 µM): 8.8 ± 1.8%
DNA content (%) G0/G1 ([6]; 24 h incubation, 2 µM): 35.3 ± 2.0%
DNA content (%) G2/M ([6]; 24 h incubation, 2 µM): 28.0 ± 3.0%
DNA content (%) S ([6]; 24 h incubation, 2 µM): 14.5 ± 2.7%
DNA content (%) Sub-G0/G1 ([6]; 24 h incubation, 2 µM): 15.4 ± 3.2%
DNA content (%) G0/G1 ([6]; 24 h incubation, 4 µM): 19.9 ± 3.6 %
DNA content (%) G2/M ([6]; 24 h incubation, 4 µM): 27.0 ± 2.5%
DNA content (%) S ([6]; 24 h incubation, 4 µM): 15.1 ± 2.3%
DNA content (%) Sub-G0/G1 ([6]; 24 h incubation, 4 µM): 25.9 ± 5.1 %
DNA content (%) G0/G1 ([6]; 48 h incubation, 1 µM): 34.5 ± 2.9%
DNA content (%) G2/M ([6]; 48 h incubation, 1 µM): 18.8 ± 2.4%
DNA content (%) S ([6]; 48 h incubation, 1 µM): 14.1 ± 1.6%
DNA content (%) Sub-G0/G1 ([6]; 48 h incubation, 1 µM): 21.8 ± 4.7 %
DNA content (%) G0/G1 ([6]; 48 h incubation, 2 µM): 31.8 ± 2.3 %
DNA content (%) G2/M ([6]; 48 h incubation, 2 µM): 21.2 ± 2.8%
DNA content (%) S ([6]; 48 h incubation, 2 µM): 9.3 ± 1.7%
DNA content (%) Sub-G0/G1 ([6]; 48 h incubation, 2 µM): 28.9 ± 4.7 %
DNA content (%) G0/G1 ([6]; 48 h incubation, 4 µM): 15.1 ± 0.9 %
DNA content (%) G2/M ([6]; 48 h incubation, 4 µM): 17.1 ± 2.2%
DNA content (%) S ([6]; 48 h incubation, 4 µM): 6.9 ± 1.3%
DNA content (%) Sub-G0/G1 ([6]; 48 h incubation, 4 µM): 55.3 ± 2.7 %
more potent than 5-FU (fold) ([7]; B16-F10, IC50 compared with 5-FU): 2 fold
Selectivity index (SI) ([7]; SI = IC50[MRC-5]/IC50[B16-F10]): 4.5
Selectivity index (SI) ([7]; SI = IC50[PBMC]/IC50[B16-F10]): 2.7
IC50 ([7]; read-out: IC50 in µM, B16-F10, alamar blue assay, 72 h incubation, 2D culture): 2.1 µM
Apoptotic cells after pre-treatment with antioxidant NAC ([8]; HCT116, 1 h 5 mM NAC, then 4 µM complex for 48 h, data not shown): did not prevent the increase of apoptotic cells
Apoptotic cells after pre-incubation with caspase-3 inhibitor Z-DEVD-FMK ([8]; HCT116, 2 h 50 µM Z-DEVD-FMK, then 4 μM RU/5-FU for 48 h): prevented the increase of apoptotic cells
Necrotic cells ([8]; HCT116, annexin V-FITC/PI): No significant increase
Early and late apoptotic cells ([8]; HCT116, annexin V-FITC/PI, 24 and 48 h, 5-FU at 4 μM): increasing in early and late apoptotic cells
more potent than 5-FU (fold) ([9]; MCF7, IC50 compared with 5-FU): 2 fold
Selectivity index (SI) ([9]; SI = IC50[MRC-5]/IC50[MCF7]): 1.3
Selectivity index (SI) ([9]; SI = IC50[PBMC]/IC50[MCF7]): 0.8
IC50 ([9]; read-out: IC50 in µM, MCF7, alamar blue assay, 72 h incubation, 2D culture): 7.6 µM
more potent than 5-FU (fold) ([10]; HL-60, IC50 compared with 5-FU): 5 fold
Selectivity index (SI) ([10]; SI = IC50[MRC-5]/IC50[HL-60]): 3.7
Selectivity index (SI) ([10]; SI = IC50[PBMC]/IC50[HL-60]): 2.2
IC50 ([10]; read-out: IC50 in µM, HL-60, alamar blue assay, 72 h incubation, 2D culture): 2.6 µM
Caspase-3 activation [11]: significant increase
Reduction of the number of viable cells ([12]; 1 μM, 24 h): 40.0%
Reduction of the number of viable cells ([12]; 1 μM, 48 h): 72.4%
Reduction of the number of viable cells ([12]; 2 μM, 24 h): 60.0%
Reduction of the number of viable cells ([12]; 2 μM, 48 h): 81.7%
Reduction of the number of viable cells ([12]; 4 μM, 24 h): 76.1%
Reduction of the number of viable cells ([12]; 4 μM, 48 h): 90.2%
Number of non-viable cells ([12]; 24 and 48 h): No significant (p > 0.05) increase
more potent than 5-FU (fold) ([13]; K562, IC50 compared with 5-FU): 10 fold
Selectivity index (SI) ([13]; SI = IC50[MRC-5]/IC50[K-562]): 4.8
Selectivity index (SI) ([13]; SI = IC50[PBMC]/IC50[K-562]): 2.9
IC50 ([13]; read-out: IC50 in µM, K562, alamar blue assay, 72 h incubation, 2D culture): 2 µM
more potent than 5-FU (fold) ([14]; HCT116, IC50 compared with 5-FU): 3 fold
Selectivity index (SI) ([14]; SI = IC50[MRC-5]/IC50[HCT116]): 6.3
Selectivity index (SI) ([14]; SI = IC50[PBMC]/IC50[HCT116]): 3.8
IC50 ([14]; read-out: IC50 in µM, HCT116, alamar blue assay, 72 h incubation, 2D culture): 1.5 µM
